For orientation: % Inhibition means the relative decrease from the control value, in per cent.

In all, about 150,000 compounds went through this assay and about 540 (0.36%) showed an effect of 50% or more. The list shows a part of the results.

The test system of the experiment is Plasmodium falciparum. In words: Primary screen in NF54 nanoGlo assay, in single point, at 2uM, 72h; a lower Z score goes with more inhibition. The class given is functional, Erythrocyte. Conditions: timepoint 72 hour.
On to `CN(Cc1ncccn1)c1nc(C2CCOCC2)ns1`, for which the “% Inhibition” value was -1% and the Z score worked out at 0.13.
For `COc1ccc(-c2nc(=O)c(CCC(=O)N3CCc4ccccc4C3)n[nH]2)cc1` the same measures were -6% and 0.55.
For `C/C=C(\C)C(=O)N1CCC(c2cn(Cc3ccc(C(F)(F)F)cc3)c3ccccc23)CC1` the same measures were -5% and 0.42.
For the molecule `CCCCN(Cc1ccccc1)C(=O)C[C@]1(c2cccc(F)c2)CC(=O)N(C)C1=O`, the “% Inhibition” value is reported as -8% and the Z score is listed as 1.09.
For `CCC[C@H]1CN(S(C)(=O)=O)C[C@@H]1NC(=O)c1ccc(C#N)nc1`, in that order: -4% and 0.59.
For `O=C1Nc2ccc(Cl)cc2C(c2ccccc2)C1N1CCOCC1` (configuration not stated), in that order: 35% and -3.94.
For `CCN(CC)S(=O)(=O)c1ccc(NC(=O)CCC(=O)c2ccc3c(c2)OCCCO3)cc1`, in that order: -8% and 0.76.
As to `CN(C(=O)c1ccc(O)cc1F)c1nccs1`, the “% Inhibition” value was found to be 4% and the Z score is reported as -0.39.
For `Cc1cc(NC(=O)C2CCCCCC2)nc(=O)[nH]1` the same measures were 2% and -0.27.
For `CCC1CCCCN1C(=O)CC(=O)N1CCCCC1CC` (configuration not stated), in that order: -5% and 0.73.
For `O=C(Nc1cccc(Br)c1)c1ncn(C[C@H](O)c2ccc(F)cc2)n1`, in that order: -6% and 0.64.
For the molecule `COc1ccc(F)c(CN2CCC[C@@]3(CCN(C(=O)c4cnccn4)C3)C2)c1`, the “% Inhibition” value was determined as 1% and the Z score is given as -0.11.
As to `Cc1cc(C)c(C(=O)N2C[C@@H]3CN(CC(C)C)CC[C@]3(CO)C2)c(C)c1`, the “% Inhibition” value is reported as 3% and the Z score was -0.55.
For `CCOC(Cn1cc(C(=O)NC[C@H](c2ccccc2)C(C)C)nn1)OCC` the same measures were -9% and 1.41.
With `Cn1c(N2CCC[C@H](C(=O)Nc3ccc4c(c3)OCCO4)C2)cc(=O)n(C)c1=O`, the “% Inhibition” value was -5% and the Z score was determined as 0.98.
Consider `CC(C)(C)OC(=O)Nc1ccccc1CC(=O)NCc1ccco1`, for which the “% Inhibition” value was -9% and the Z score was determined as 1.14.
For `O=S1(=O)CC[C@H](Nc2nnnc3c2cnn3-c2ccccc2)C1` the same measures were -2% and 0.29.
Take `CCc1ccc(CN(C)Cc2nccn2C)o1`: the “% Inhibition” value stood at 9% and the Z score is recorded as -1.62.
For `CN(C[C@H]1CCCCO1)C(=O)NCc1cccc(C(F)(F)F)n1` the same measures were -2% and 0.34.
For `COc1cccc(CC(C)(C)NC(=O)CN(C)C)c1` the same measures were -6% and 1.04.
With `Cc1ccc(-c2ccc(C(=O)NCCNC(=O)c3cnccn3)o2)cc1Cl`, the “% Inhibition” value was -4% and the Z score was determined as 0.59.
Turning to `C=CCn1c(C(=O)NCCN2CCCCC2)cc2c(OCc3cccc(C)c3)cccc21`, the “% Inhibition” value is given as -11% and the Z score is 1.34.
In the case of `Cn1cc(Cl)c(C(=O)NCc2nc(C(C)(C)C)no2)n1`, the “% Inhibition” value is -2% and the Z score was 0.42.
For `Cc1ccc(-c2cc(-c3ccc(C)cc3)c3c(n2)-c2cc(F)ccc2OC3)cc1` the same measures were 11% and -1.26.
For `CC(C)N1Cc2cc(C(=O)NCc3ccc(Cl)cc3)sc2C1` the same measures were 3% and -0.51.
For `Cc1cccc(NC(=O)C2C(=O)N[C@]34CCCCC3C2c2ccccc2O4)c1` (some centres not stated), in that order: 2% and -0.27.
As for `Cc1nc(CC(=O)NC[C@@H]2COc3ccccc3C2)cs1`, the “% Inhibition” value turned out to be 4% and the Z score is on record as -0.49.
For `CNC(=O)CCCN(C)c1ccnc2cc(Br)cnc12` the same measures were -9% and 1.06.
For `O=S(=O)(Cc1ccccc1)NCCc1cccc2[nH]ccc12` the same measures were -3% and 0.4.
For `CC1CN(c2ccnc(C(=O)NCC(=O)NC3CCCCC3)c2)CC(C)O1` (configuration not stated) the same measures were -12% and 1.11.
In the case of `O=C(Nc1ccc2c(c1)CCC2)[C@@H]1CCCCN1C1=NS(=O)(=O)c2ccccc21`, the “% Inhibition” value is 3% and the Z score is -0.57.
For `O=C(COc1ccccc1)NCc1cccnc1-n1ccnc1`, in that order: 1% and -0.19.
For `CC(NCC1CCC(C(=O)N(C)C)O1)C(C)(C)C(F)F` (configuration not stated) the same measures were -1% and 0.12.
For `CCCC(=O)Nc1cccc(Br)c1`, in that order: -6% and 1.09.
In the case of `CC(C)CN1CC(=O)N(C2CCN(c3ccc(N(C)C)cc3)CC2)C1=O`, the “% Inhibition” value came to 31% and the Z score was -3.47.
For `Nc1cc(Br)cc(Br)c1N`, in that order: -10% and 1.48.
Regarding `Cn1nc2c(c1C(=O)NCCc1csc(N)n1)CCCC2`, the “% Inhibition” value is listed as -6% and the Z score came to 1.21.
For `CC(C)Oc1cccc(-c2ccc(-c3nnco3)cc2)c1`, in that order: -8% and 1.04.
Consider `CCN(CC)Cc1cnc2c(C(=O)N(C)Cc3nc(C)c[nH]3)cnn2c1`, for which the “% Inhibition” value was -10% and the Z score turned out to be 0.97.
Regarding `CC[C@H](NC(=O)CCCN1CCOCC1)c1nccs1`, the “% Inhibition” value was -18% and the Z score amounted to 1.82.
For `COc1cccc(N2CCN(C(=O)c3ccc(C)nc3C3CCN(Cc4ccccc4OC)CC3)CC2)c1`, in that order: -4% and 0.85.
With `CCN(CC)C[C@H](C)NC(=O)Nc1cc(C)on1`, the “% Inhibition” value was -16% and the Z score came to 1.59.
`CCOc1ccc(C2=NC3(CCN(C(C)C)CC3)N[C@H](c3cccc(OC)c3O)C2)cc1`: the “% Inhibition” value is on record as -11% and the Z score stood at 1.26.
On to `Cc1cc(C(=O)N[C@@H](C)c2ccc(OC(F)(F)F)cc2)co1`, for which the “% Inhibition” value is listed as -13% and the Z score was 1.27.
On to `O=S(=O)(c1cccc(F)c1F)N1CCN(Cc2nccn2C(F)F)CC1`, for which the “% Inhibition” value is reported as -4% and the Z score was found to be 0.57.
For `CON(C)C(=O)c1coc(NC(=O)c2cnccn2)n1`, in that order: -8% and 1.06.
For `FC(F)(F)c1cncc(CN2CC[C@H](Nc3ncccn3)C2)c1` the same measures were -1% and 0.19.
For `CCN1[C@H](C)CN(C(=O)OCCF)C[C@@H]1C` the same measures were -7% and 0.89.
Turning to `O=C(c1cccc2cc[nH]c12)N1C[C@@H]2[C@H](C1)[C@H]1CC[C@@H]2O1`, the “% Inhibition” value turned out to be 18% and the Z score is -1.92.
For `C#CCN1CCN(C(=O)NCc2cnc(CC(C)C)s2)CC1` the same measures were 5% and -0.95.
For `CNC(=N[C@@H](CC1CCOCC1)c1ccccc1)NCc1ccco1` the same measures were 1% and -0.14.
For `C[C@@]1(C(=O)NCc2ccccc2)Cn2cnc(C(=O)NCCc3ccco3)c2C(=O)N1C1CC1` the same measures were -4% and 0.81.
As for `COC[C@H]1CCCN(S(=O)(=O)NCCc2ccncc2)C1`, the “% Inhibition” value was -17% and the Z score was determined as 1.6.
For `CC(=O)N1CCc2ccc(OCC(=O)NCc3ccccc3)cc2[C@@H]1c1ccccc1`, in that order: -8% and 0.82.
For `CC[C@H](C)[C@@H](CN(C)C)NC(=O)CCc1ccncc1`, in that order: 20% and -2.58.
In the case of `CCCCNC(=O)N1CCN(C2CCOCC2OC)CC1` (configuration not stated), the “% Inhibition” value is reported as -14% and the Z score came out at 1.78.
For `Nc1cc(C(F)(F)F)ccc1OCC(F)(F)F`, in that order: -7% and 0.85.
For `C[C@H]1CCN(Cc2cccc(-c3cccnc3)c2)CCS1(=O)=O` the same measures were 3% and -0.48.
For `CCOc1ccc(Cc2nc(CN3C(=O)COc4ccccc43)no2)cc1OCC` the same measures were 3% and -0.35.
Take `Cn1nc(C(F)(F)F)cc1[C@@H]1CCCCCN1C(=O)c1ccc(F)cc1`: the “% Inhibition” value is -2% and the Z score stood at 0.3.
For `O=C(NCc1cc(O)ncn1)c1cc(COc2ccc(F)cc2F)[nH]n1`, in that order: -3% and 0.36.
On to `CCS(=O)(=O)N1CCC([C@H](C)N(C)c2nccs2)CC1`, for which the “% Inhibition” value is listed as -1% and the Z score is listed as 0.13.
For `Cn1cncc1CN1CCC(CNC(=O)C2CCC2)CC1` the same measures were -11% and 1.61.
For `COC[C@@H]1C[C@@H](OC)CN1c1ccnc2ncccc12` the same measures were 9% and -1.43.
For `CC1(C)[C@H](Cc2cc(CCO)on2)C[C@@H]1NCc1ccco1` the same measures were -9% and 1.12.
With `COCCCN=C(NCc1ccccc1OCCOC)NC1CC1`, the “% Inhibition” value is recorded as -16% and the Z score is given as 1.63.
As to `COc1ccc(CC(=O)N2CC3(C[C@H](N4CCN(C)CC4)CO3)C2)cc1`, the “% Inhibition” value is given as -7% and the Z score is reported as 1.04.
For `CN(CC1CC1)c1ccc(S(=O)(=O)N(C)C)cc1S(N)(=O)=O` the same measures were -16% and 1.65.
For `CCn1ncc(Cl)c1C(=O)NC1(c2ccccc2F)COC1`, in that order: 2% and -0.26.
For `CC1(C)CCC[C@@H]1NC(=O)NCc1cccc(-c2nnc[nH]2)c1` the same measures were -1% and 0.09.
Consider `COc1ccc(Cn2c(CN3CCN(C)CC3)n[nH]c2=O)cc1`, for which the “% Inhibition” value was -14% and the Z score turned out to be 1.43.
For `COCC1(CNC(=O)Cc2c(C)nc3ccccn23)CCCC1` the same measures were -13% and 2.12.
For `CC(C)(C)c1nc(COc2ccc3c(c2)OCO3)cs1` the same measures were -5% and 0.82.
For `CC(=O)Nc1cnc(N2CCCCCC2)nc1` the same measures were -20% and 1.79.
For the molecule `Cc1cnc(C2CC2)n1CCC1CCN(C(=O)c2ccc3[nH]ccc3c2)CC1`, the “% Inhibition” value was -1% and the Z score stood at 0.15.
Consider `CC(C)n1nnnc1CN1CCC[C@H]1C=Cc1ccccc1`, for which the “% Inhibition” value is -11% and the Z score was 2.07.
For `c1ccc(Cn2c(COc3ccc4ccccc4c3)nc3ccccc32)cc1` the same measures were 0% and 0.03.
For `Cc1ncsc1CCC(=O)N1CCC(c2cccc(O)c2)CC1` the same measures were -2% and 0.42.
For `Cc1ccccc1OCC(=O)N(Cc1cccs1)C1CCOCC1`, in that order: 0% and 0.04.
As to `CN(C)c1ncc(CN[C@H](c2cccc(Cl)c2)C(F)F)cn1`, the “% Inhibition” value came out at 5% and the Z score is -0.78.
For `CCc1nnc(CN(C)C(=O)c2ccc(-c3c(C)[nH]c(=O)[nH]c3=O)cc2)o1` the same measures were -11% and 1.13.
For `C[C@H]1CCCCN1C1CN(C(=O)c2c3c(nn2C)CCCC3)C1`, the “% Inhibition” value was -13% and the Z score came to 1.38.
For `Cc1cccc(N2CCN(C(=O)NC3CC3)CC2)c1C`, in that order: 1% and -0.2.
For `Cn1nc([C@@H]2CCCCN2C(=O)Nc2ccccc2Cl)c2c1CCOC2` the same measures were -10% and 0.97.
For `COc1ccccc1-n1ncnc1-c1c[nH]c(=O)c(Cl)c1` the same measures were -17% and 2.23.
Consider `Cc1onc(C(=O)N2CC[C@H]3[C@H](CCC(=O)N3CCC(C)C)C2)c1CO`, for which the “% Inhibition” value is listed as -5% and the Z score is given as 0.64.
